Reference: the supplement of paper PMC11417369
± gives the standard deviation of the averaged measurements. Some of the results follow.

The sequences below were run on PfAP2-G AP2 domain (GST-tagged) (assay: gcPBM binding intensity (ln(normalized median fluorescence intensity)); higher = stronger DNA binding).
Summary of the method: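 An Agilent 4 × 180k array carrying primer-extended double-stranded 36-bp intergenic genomic probes and negative controls received GST-tagged P. falciparum DNA-binding domains expressed in E. coli, about 25 μg on average, for 1 h. The binding buffer contained 1× PBS, 1% milk, 0.2 mg/ml BSA, 0.5% salmon testes DNA and 0.03% Triton X-100. Binding intensity is the top Masliner-normalised natural-log median intensity across replicate spots of either probe orientation, read after Alexa488 anti-GST antibody staining and a 488 nm scan.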

Sequence | gcPBM binding intensity (ln)
AATAAATTATGAACGGTGCAGGAAAAATTGTAACAT | 10.18 ± 0.028
TAGATTATTTTATTTAGTACATAAAAAAGTAAGACC [XGTACX_site7889] | 11.1 ± 0.77
TTAAATAAATAAAAATGTACATGCATATATAAATAT [XGTACX_site8908] | 10.9 ± 0.38
AATTTTTTATATGTCACACATTTGTTATTATTATTA [CACACA_site4197] | 10.04 ± 0.064
CAATCTTTTACGAATACACACACATAAAGAAAAAAA [CACACA_site8367] | 10.2 ± 0.16
AAAAAGAATAAATAAATATAAATAAATAAATATATA [GTGCAC_negctrl_site336] | 9.32 ± 0.2
ACATATAGAAGTATCTATAAACAGTGATAGCATTTT [CACACA_negctrl_site1122] | 10.1 ± 0.15
GCAAGGAAATAATTGATAATATATATATATATATAT [GTGCAC_negctrl_site400] | 9.84 ± 0.4
ATACATAAATATTGATGTACTCATTTAATATATTAT [XGTACX_site3992] | 11.3 ± 1
AATATATATATATATATATATTTTTGTTAGAATATG [XGTACX_negctrl_site58] | 9.52 ± 0.12
TATAATAAATATTAACGTACTCATATATATATATAT [XGTACX_site3871] | 11.1 ± 0.69
GAGTAAATAAATAAATGTACATATATATATATTATC [XGTACX_site8466] | 11 ± 0.54
ATTATCTCCGCCATGTGGACACATATAAGACATTTT [XGTACX_site2889] | 11.1 ± 0.59
ATTGTATATAAATGAGTGCATACTATGTTGTTCTTA [GTGCAC_site9678] | 10.3 ± 0.22
AAAAAAAAAAAAAACACACACACAAAAAAAAATATA [CACACA_site1104] | 10 ± 0.36
CTAAAATACGGACACACACACACATATATATATATA [CACACA_site6138] | 11.6 ± 0.93
TATGTAAATCTCTTAAGAATTCGCTATATCTCTTTT [CACACA_negctrl_site1180] | 9.46 ± 0.28
ATATAAGCGTATACATGTACATATATATCTTTGTAA [XGTACX_site2742] | 11.3 ± 0.68
AGGCTACGAATAGAATGTACCCGAAATAAGGAATAT [XGTACX_site6012] | 11.4 ± 0.98
TTTTTTTTTTCAAATGCATGCAAAAAAAAAAAAATA [TGCATGCA_site945] | 10 ± 0.5
TATATGTATGTTTGTTTGTTTGTATTTTTTAAGGTA [XGTACX_negctrl_site619] | 10.03 ± 0.064
TTTTCTTTTTCCAAAAGTACGTAATTTAAACATTTT [XGTACX_site2066] | 11.2 ± 0.59
AAAATATGTAGACACATACACACATATATATATATA [CACACA_site1221] | 10.6 ± 0.86

Sequence | gcPBM binding intensity (ln)
AAATTAGAAATACCTACACACTTATCAAAATAAATT [CACACA_site7132] | 9.98 ± 0.13
ATAATTATGAAGCATACATGCATGTCCTGGCTTAAA [TGCATGCA_site491] | 10.2 ± 0.26
AAAAAATAAATAAATACACACAAATCTATATTTATA [CACACA_site7243] | 9.79 ± 0.028
TTATAATATGGATACACACACATATATAAATATATA [CACACA_site5314] | 10.2 ± 0.3
ATCTAAATTTTTCCATGTACATATACTTTTATGCAT [XGTACX_site2683] | 11.2 ± 0.71
ATAAAAAAAAATAAATGTACAAATTAACAAAATAAT [XGTACX_site5048] | 10.8 ± 0.42
ATTATTCATTTATGTAGTACATTTTAATACATTTAA [XGTACX_site3599] | 11.5 ± 0.64
AAGAAAAATTTAAACTGTACTTGTTTTCCAATGAAC [XGTACX_site4443] | 11.4 ± 1
AAAAAAAAAAAAGTTACACACAAATAAAATATTTGG [CACACA_site694] | 9.87 ± 0.18
AATCACCAAATATGTACACACCTTAACATGTTTATA [CACACA_site5180] | 11.4 ± 0.82
ATCTAAACAAATAATACACACAATAAAATAGGAAGA [CACACA_site4072] | 9.94 ± 0.042
TGTGAATAAATAAGCACACATAAACCCATATATAAA [CACACA_site4103] | 10.21 ± 0.021
TATTTTTTAAAAATGGGTACACATAAATAAATAAAT [XGTACX_site7643] | 11.6 ± 0.95
TAATATTTACATATTACACACACGTATTATTAAATA [CACACA_site6340] | 10.12 ± 0.071
TTATACTATTTTTATACATGCATTTCTATATATTTT [TGCATGCA_site316] | 10.11 ± 0.014
TTATAATCAATGAATACACACATATATTTCATTAAT [CACACA_site5909] | 9.93
TAATAATAGAGACACACACACATAGACATATAAATA [CACACA_site6729] | 10.12 ± 0.092
ATCTATGAAAAAGGTACATGCAATAAAGAAACATAT [TGCATGCA_site805] | 11.1 ± 0.76
TTCAAAATAAAAAATTCACACACATATATATATATA [CACACA_site8653] | 9.84 ± 0.28
TATATATATATTATATGTACACAAGGAAATATGCAT [XGTACX_site5637] | 11.5 ± 0.75
TATGTATAATTATTTTGTACTTATTAAATTTTTTTT [XGTACX_site5413] | 11 ± 0.72
AAATAAAAAAAAATAGCACACATAAATATATTATAT [CACACA_site8155] | 9.925 ± 0.049
